{"source": "paper PMC12136788", "binders": {"B1": {"name": "chrX:45547847:45547848:-_ENSMUSG00000036985_ENSMUST00000037960|mus_mus|FALSE|FALSE (ssRNA)", "RNA": "GGGAGUUCUACAGUCCGACGAUCAGGGUCACUGAAACUUGUCCUCAACAGCGUGGCCAUGGAGAAAAGAAAGAGCAUAGCGGCAAACACAGGAAUGGCAGGAGACAGCUGAACAGCCAGGUAGCGACACUCGAAGGCAAAGAACAACAGAGGAUUGAGCAUCA"}, "B2": {"name": "chr3:10015032:10015033:+_ENSMUSG00000027533_ENSMUST00000029046|mus_mus|mus_mus_mus_hu_True|28_38 (ssRNA)", "RNA": "GGGAGUUCUACAGUCCGACGAUCGUUUUUACCAUCACAAGUGAUGAUACAAUCUGGCUUGGCCAUUGCGCCCAUUUUUCGCAAAGCUAUUCCCACUCCUAGCUCUUUCAUGUACUCAUCAAAGCCUUUGCUGUCCACCAGGCGCAACAGAGGAUUGAGCAUCA"}, "B3": {"name": "chr9:87430539:87430540:+_ENSG00000148053_ENST00000359847|hu_hu|motif|central (ssRNA)", "RNA": "GGGAGUUCUACAGUCCGACGAUCAAAAUGAUUGAAUUCAGCAAGUACAUUUAUGAUCUAUCUACAUUGUUAAAACAGCACGGAAAAUAAAAAUUUUUAAAAUGAUUAUCCAUUAUUUACAGAAAAUGUGGAAAAGAUGGCUUUCAACAGAGGAUUGAGCAUCA"}, "B4": {"name": "chr4:81121375:81121376:+_ENSG00000152784_ENST00000415738|hu_mus|motif|central (ssRNA)", "RNA": "GGGAGUUCUACAGUCCGACGAUCUACCCGGAAGAUGUAAGGUACUGUUCUCUUGUCCGUGGACUUGAGGGCUACGAAGGCGGUGCUGUCAUACAGGGAAGUAUGGCUCAGUACACAGGGACCGAAUAUGGCGUUCUCUGGGAUCAACAGAGGAUUGAGCAUCA"}, "B5": {"name": "chr11:77336104:77336105:-_ENSG00000074201_ENST00000525064|hu_mus|hu_hu_hu_mus_False|68_88 (ssRNA)", "RNA": "GGGAGUUCUACAGUCCGACGAUCCUCACACAUUGCUGUGAACAUCGCCUCCAACGCUGACUUAUCACUAGGCACAAAUCGAAAUUCAGAAAUGGGUUCAACAUCAUCAUUGUCUUCCUCAUCUUCAUCAGAGAGAGGUUCUUUCAACAGAGGAUUGAGCAUCA"}, "B6": {"name": "chrX:12171913:12171914:+_ENSMUSG00000031007_ENSMUST00000033313|perfect_dup|FALSE|FALSE (ssRNA)", "RNA": "GGGAGUUCUACAGUCCGACGAUCCCUGGUAUAGGCCAAUUUCCAUUUCGGAAAACAACAGACCCUGGUGAUUUUAAUAUACUAAACUCGUUCCCCAAAACACCCGCCACCAACGCCAGGAGCACGACAAACACAGCCAUGGUGCAACAGAGGAUUGAGCAUCA"}, "B7": {"name": "93960447_93963424_2606_3pUTR_ENSMUSG00000020859_ENSMUST00000103168|mouse|control|control (ssRNA)", "RNA": "GGGAGUUCUACAGUCCGACGAUCGUACAAUUCCUUUCACAUGUACAAUACUGAGAAUUGAGUCUUUGAGCUUAAUGGAAUGGAGACAUUUCCUCCACUGGGCUACAGAUGAGUGGACAUACAAACAGCCAUUCUGAGCUCCAACAACAGAGGAUUGAGCAUCA"}, "B8": {"name": "chrX:98862621:98862622:+_ENSMUSG00000034160_ENSMUST00000044475|mus_hu|mus_mus_mus_hu_False|18_58 (ssRNA)", "RNA": "GGGAGUUCUACAGUCCGACGAUCCUGCAUCUCCUUUAGAGUGUUUCCCAUAUUAGAGUAGGCAUCAGCAAAGGUAGGACUAAUUCGAAUAGCCUCCUUAUAAUGCAUCAGAGCUUCCUGCAGCUUGCCCUGCUGCUGCAGUACCAACAGAGGAUUGAGCAUCA"}, "B9": {"name": "chr2:103616161:103616162:-_ENSMUSG00000027184_ENSMUST00000111147|mus_hu|motif|central (ssRNA)", "RNA": "GGGAGUUCUACAGUCCGACGAUCCUCAUCUACCUGCUCCUUUUCACCACUGGUGAACUGUGUUUCUGCCAUGAACUGUCGGUUUACAUACUCUGUUGAUUCAACUUCACUUUGCUCAGUGUACUCUUCUGCUGGCUCAGGUUCCAACAGAGGAUUGAGCAUCA"}, "B10": {"name": "chr12:110729878:110729879:+_ENSG00000174437_ENST00000539276|hu_hu|motif|central (ssRNA)", "RNA": "GGGAGUUCUACAGUCCGACGAUCUUCGAUGGCAUUUUCAGCAUUUCUUUCCUGCCAUACACCCACAAUUGCAUUGGCGGCGGAUAUGAGUAAAAUUACAAAAGGUUCUACAAAGGCUGUAAUUGUUUCUUCACCUUCUUCAAACAACAGAGGAUUGAGCAUCA"}, "B11": {"name": "chr14:78183846:78183847:+_ENSG00000119705_ENST00000557342|hu_hu|hu_hu_hu_mus_False|28_78 (ssRNA)", "RNA": "GGGAGUUCUACAGUCCGACGAUCUCUCAGAAAUCUUUCUUCAUCAGAUGUUUGAGCUGUUUGCGGAGCCUUUGCUCUUUGAGCUUGAACGUGGAUCUAUGGGAGGGCUAUAAUAUGCAGAAAAGGUAAUUUUUUUUUUAAAGACAACAGAGGAUUGAGCAUCA"}, "B12": {"name": "29795611_29795731_792_3pUTR_ENSMUSG00000019715_ENSMUST00000019859|mouse|control|control (ssRNA)", "RNA": "GGGAGUUCUACAGUCCGACGAUCGCUGCAGGACCUCCUCUUGCAGGGAGUACAGGCUGCGCAGACGGACCUGACCUUCCUCCUUCCGAAGCUGCUCCUGCUCUGCCUGCUUCACACGCUGCUGCUCUGCCUCUCGAAGCUUUACAACAGAGGAUUGAGCAUCA"}, "B13": {"name": "chr13:24894569:24894570:+_ENSMUSG00000019132_ENSMUST00000019276|mus_mus|motif|central (ssRNA)", "RNA": "GGGAGUUCUACAGUCCGACGAUCCUGAUUAAUUCUUAGUUAUUUCAGAUUUCACUACUGCUAUGAACUGUCAGUGCUUUGCGGUUGAUUACACUUGGUGGUGAGCAAAGAGAAAAGUGCAAAAUCAGCAGAGAAAGAAGGGGACAACAGAGGAUUGAGCAUCA"}, "B14": {"name": "chr8:117878989:117878990:-_ENSG00000164754_ENST00000297338|hu_hu|hu_hu_hu_mus_True|8_28 (ssRNA)", "RNA": "GGGAGUUCUACAGUCCGACGAUCCCAGAGGCCCUCGUUUACUGAGGACAAAAUGUGCGUAGAACAUUUUUCUUAUUUGCUAUGAAAUAAGAAGAAACCUGGAUCUCCCGCUGGGAGCGGGAGGGGUUGGGUGGCCCGGGAGGGCAACAGAGGAUUGAGCAUCA"}, "B15": {"name": "219081829_219081949_73_3pUTR_ENSG00000163466_ENST00000315717|human|control|control (ssRNA)", "RNA": "GGGAGUUCUACAGUCCGACGAUCCGAGCCGCCGCCGCCGCCGCCACUGCCGCUUCACCGACAAGCCCGGUCCCCGCCCAGCCCCCGGCUCUAGCCGGCCACUUCCGCUCUCACACCCACUUCCGCUCGCCGCCUGGACGCGCGCAACAGAGGAUUGAGCAUCA"}, "B16": {"name": "chr1:244855233:244855234:+_ENSG00000121644_ENST00000302550|hu_mus|hu_hu_hu_mus_True|28_28 (ssRNA)", "RNA": "GGGAGUUCUACAGUCCGACGAUCCAUCAGAUGGUAGGCGUUGCCCUUAUACUCUUUCCCCAGUUCUUCUACAAUUUUCUCUAUAUCAUCUUCUAGAAAGUCCGUACUCCCUAAAACAACAGCUUCUUUAAAUUUAAAUGUUUCCAACAGAGGAUUGAGCAUCA"}, "B17": {"name": "98608890_98609252_2255_CDS_ENSMUSG00000031310_ENSMUST00000121520|mouse|control|control (ssRNA)", "RNA": "GGGAGUUCUACAGUCCGACGAUCAUCCAGCUGCUCAGUGACACCACGCUGGCAGGUUUGGGAACAGUAAGUACAGGUGAUACAACAUAAGCCCAGCUUCUUAGUAAAAUCUUGCUUGUACAGCAGUACACAGCCUUCACUGCACAACAGAGGAUUGAGCAUCA"}, "B18": {"name": "chr4:13698614:13698615:+_ENSMUSG00000006586_ENSMUST00000098257|mus_mus|motif|central (ssRNA)", "RNA": "GGGAGUUCUACAGUCCGACGAUCACUCAGUGCUCUCCAAGUGUUUCUUUUGACAGAUAUCAUUCUCCAGCAAGCGCUGUGCGGAUCUCCUCUGCUGCUCGGACUGGGACCCAGAUAAGUUCACCAGCCCACAGAUCAAUCUUUCAACAGAGGAUUGAGCAUCA"}, "B19": {"name": "chr7:118218646:118218647:-_ENSMUSG00000005610_ENSMUST00000162415|mus_mus|motif|central (ssRNA)", "RNA": "GGGAGUUCUACAGUCCGACGAUCUUCCUGUUUGAGUAAACUGAUUAAAGAGCUUGCUUUUUCUUUAUCUUCAUCACUUCGGUCAAGUGACAGGAUGAUCACUUUGCUUAGCAUCUCAGGAAGAAAGUGUUUUGGAGCUCUCAUCAACAGAGGAUUGAGCAUCA"}, "B20": {"name": "chr13:50590013:50590014:+_ENSG00000204977_ENST00000378182|hu_mus|FALSE|FALSE (ssRNA)", "RNA": "GGGAGUUCUACAGUCCGACGAUCGGGUCGCUCUACAAACAUUGUAAUCCUCCCACUUAGCAUCUCGAUUGUUUUGCUGCAAGAGCCAAACACUCUGAAGAAGGCUUGAGUAUUUUGGUUUAGGAAAUGGACCUCCAUGACAGCCAACAGAGGAUUGAGCAUCA"}, "B21": {"name": "chr15:44267162:44267163:+_ENSMUSG00000022338_ENSMUST00000060652|mus_mus|FALSE|FALSE (ssRNA)", "RNA": "GGGAGUUCUACAGUCCGACGAUCCUGAGCAAGGAAUGUUCUUAUUCUCUGUAGGAGCUCCUUCUUUACACUGUCAGGUACCAGGGCUCUGCCUUUUGGAGUGAUUUCAGCCACCAAGUCAUCAACAGUAACGUGUUCUAGUCCCAACAGAGGAUUGAGCAUCA"}, "B22": {"name": "chr2:32086683:32086684:+_ENSMUSG00000039262_ENSMUST00000036691|mus_mus|motif|central (ssRNA)", "RNA": "GGGAGUUCUACAGUCCGACGAUCUGACCACUGGGGACAGCAGAGCAGAGAGAGGACAGCGAGGACCAUAUAAAAGUUCAGCGGUACAGAUGUAGCUAGCAUUUUGUUCUCAUUUCCCCUUUGUAAAAACCUUAGCUGCUUUUUCAACAGAGGAUUGAGCAUCA"}}, "note": "Some of the results follow.", "data": [{"target": "T1, UNK ZnF1-3 (human, UniProt Q9C0B0 31-174)", "T1 sequence": "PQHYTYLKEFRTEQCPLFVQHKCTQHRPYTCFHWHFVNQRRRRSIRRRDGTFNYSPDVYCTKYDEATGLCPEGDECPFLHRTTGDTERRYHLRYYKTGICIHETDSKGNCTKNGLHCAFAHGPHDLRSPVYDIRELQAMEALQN", "assay": "nsRBNS (natural sequence RNA bind-n-seq); RBNS binding buffer (assumed for nsRBNS): 25 mM Tris pH 7.5, 150 mM KCl, 3 mM MgCl2, 0.01% Triton X-100, 500 ug/ml BSA, 20 U/ml SUPERase-In, 4 C; UNK is unkempt and MSI1 is Musashi-1; names of the RNAs are library labels; protein concentration not given here; high values mean tight binding", "units": {"binding signal": "enrichment R"}, "values": [{"binder": "B1", "binding signal": 2.91}, {"binder": "B2", "binding signal": 0.679}, {"binder": "B3", "binding signal": 1.45}, {"binder": "B4", "binding signal": 1.08}, {"binder": "B5", "binding signal": 1.06}, {"binder": "B6", "binding signal": 1.61}, {"binder": "B7", "binding signal": 1.54}, {"binder": "B8", "binding signal": 0.948}, {"binder": "B9", "binding signal": 0.409}, {"binder": "B10", "binding signal": 0.894}, {"binder": "B11", "binding signal": 1.6}, {"binder": "B12", "binding signal": 0.636}, {"binder": "B13", "binding signal": 1.35}, {"binder": "B14", "binding signal": 1.14}, {"binder": "B15", "binding signal": 1.55}, {"binder": "B16", "binding signal": 1.44}, {"binder": "B17", "binding signal": 1.16}, {"binder": "B18", "binding signal": 0.751}, {"binder": "B19", "binding signal": 0.668}, {"binder": "B20", "binding signal": 0.888}, {"binder": "B21", "binding signal": 1.16}, {"binder": "B22", "binding signal": 1.23}]}]}
